Laboratory results taken from PubChem BioAssay (Tox21).
“And” between values parts separate entries of the source, which are not always exact repeats. Equal entries are not always repeated. Inconclusive results, whose numbers are uncertain, are shown with a selection of clear calls. For some assays here: Potencies of inconclusive entries are doubtful fits and often do not repeat. The source made the active and inactive calls. Unless noted, calls follow the shape of the dose curve; as a rule, active = well fitted cell-killing curve with a large enough effect in the repeat runs; inconclusive = weak or mixed curves, or effect the other way; inactive = no such curve, though single readings can be large or run the other way.

biological target: Glucocorticoid receptor (Homo sapiens) (UniProt P04150); experiment: qHTS assay to identify small molecule antagonists of the glucocorticoid receptor (GR) signaling pathway (AID 720692; active = well fitted inhibition curve with a large enough effect in the signal ratio in the repeat runs, not every such curve was filed as active; inconclusive = weak or mixed curves, or effect the other way; inactive = no such curve, though single readings can be large or run the other way; the % refers to the signal ratio); settings: GR-bla HeLa, beta-lactamase FRET ratio, dexamethasone-stimulated, 18 h; activity change, negative = inhibition: at 58.5 µM (top of the series) unless noted
Outline: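 Quantitative HTS in antagonist format: HeLa cells expressing endogenous GR and a stably integrated GRE-bla reporter, stimulated with 5 nM dexamethasone (final) alongside test compounds for 18 h.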
% is scaled to controls: 0 for no effect and ±100 for the full control effect; tags tell the direction and shape of the fitted curve.

Chain of UniProt P04150 (P04150 whole entry, looked up): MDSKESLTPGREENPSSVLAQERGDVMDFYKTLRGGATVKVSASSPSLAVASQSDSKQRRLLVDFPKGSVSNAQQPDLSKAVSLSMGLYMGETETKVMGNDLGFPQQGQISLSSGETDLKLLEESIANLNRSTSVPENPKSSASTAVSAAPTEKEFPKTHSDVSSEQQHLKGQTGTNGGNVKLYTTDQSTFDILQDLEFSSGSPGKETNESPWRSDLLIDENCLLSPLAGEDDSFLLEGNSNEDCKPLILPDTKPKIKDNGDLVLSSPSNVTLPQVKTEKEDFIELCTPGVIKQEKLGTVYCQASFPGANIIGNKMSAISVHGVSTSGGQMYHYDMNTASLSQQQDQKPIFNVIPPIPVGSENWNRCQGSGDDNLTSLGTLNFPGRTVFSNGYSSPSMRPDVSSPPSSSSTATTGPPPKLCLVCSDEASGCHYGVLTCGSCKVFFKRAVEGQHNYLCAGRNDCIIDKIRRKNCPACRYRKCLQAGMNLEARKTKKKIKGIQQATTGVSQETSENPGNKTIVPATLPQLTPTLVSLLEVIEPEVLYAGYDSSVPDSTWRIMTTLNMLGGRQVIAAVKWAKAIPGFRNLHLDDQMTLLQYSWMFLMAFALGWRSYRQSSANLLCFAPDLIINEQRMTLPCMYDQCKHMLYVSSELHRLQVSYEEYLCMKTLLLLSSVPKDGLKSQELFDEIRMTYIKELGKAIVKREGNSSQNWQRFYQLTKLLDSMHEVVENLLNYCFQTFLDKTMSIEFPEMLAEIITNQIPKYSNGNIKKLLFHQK

Row | SMILES | activity change, negative = inhibition | Potency
1 | NCC[C@H](O)C(=O)N[C@@H]1C[C@H](N)[C@@H](O[C@H]2O[C@H](CN)[C@@H](O)[C@H](O)[C@H]2O)[C@H](O)[C@H]1O[C@H]1O[C@H](CO)[C@@H](O)[C@H](N)[C@H]1O | inactive: 6.53% | –
2 | C=C(C)C(=O)OC | inconclusive: 19.7% | –
3 | CC(C)OC(=O)C(C(=O)OC(C)C)=C1SC=CS1 | inactive: -0.674% | –
4 | O=C1NC(=O)C(c2ccccc2)(c2ccccc2)N1 | – | inactive
5 | COC(=O)c1ccc(C=O)cc1 | – | inactive

tested on: not listed separately; experiment: qHTS assay for identifying genotoxic compounds that show differential cytotoxicity against isogenic chicken DT40 cell lines with known DNA damage response pathways - wild type cell line (AID 743012); settings: DT40 wild type chicken cells viability, CellTiter-Glo, 40 h; activity change, negative = cytotoxicity: at 68.4 µM (top of the series) unless noted; also: nearly all actives have a fitted effect of over 60% in size; also: potency is read from the fitted curve at half-maximal effect
Outline: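 Luminescent ATP viability signal (CellTiter-Glo, 30 min RT) recorded after wild type DT40 cells were incubated with compounds for 40 h at 37 C/5% CO2.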

Row | SMILES | Potency | activity change, negative = cytotoxicity
6 | FC(F)(F)C(F)(F)C(F)(F)C(F)(F)C(F)(F)C(F)(F)C(F)(F)C(F)(F)C(F)(F)C(F)(F)F | inconclusive: 2 µM [rising, single point] | –
7 | CC(C)=CCl | inconclusive: 77.9 µM [cytotoxic, single point] | –
8 | CC(C)OC(=O)C(C(=O)OC(C)C)=C1SC=CS1 | active: 23.7 µM | –
9 | O=C1Nc2ccccc2C1=O | inconclusive: 54 µM [rising, partial curve] | –
10 | Cc1ccc(O)c([N+](=O)[O-])c1 | – | inactive: 4.21% [at 95 µM]
11 | O=C1NC(=O)C(c2ccccc2)(c2ccccc2)N1 | inconclusive: 54 µM and inconclusive: 77 µM [cytotoxic, single point] | –
12 | O=C(O)C(=O)Nc1cccc(-c2nn[nH]n2)c1 | – | inactive: 1.32%
13 | c1ccc2c(c1)[nH]c1ccccc12 | inconclusive: 30.1 µM [rising, full curve] | –
14 | COC(=O)c1ccc(C=O)cc1 | inconclusive: 2.73 µM [rising, full curve, poor fit] | –
